Results published in ChEMBL document CHEMBL4888484, “Replenishing the malaria drug discovery pipeline: Screening and hit evaluation of the MMV Hit Generation Library 1 (HGL1) against asexual blood stage Plasmodium falciparum ,using a nano luciferase reporter read-out” (2022).
The campaign covered roughly 150,000 compounds. About 540 (0.36%) showed an effect of 50% or more. This is one part of the list.

The compounds below were run on Plasmodium falciparum (assay: Primary screen in NF54 nanoGlo assay, in single point, at 2uM, 72h; a lower Z score goes with more inhibition). Conditions: timepoint 72 hour.
Type: functional, Erythrocyte

Row | Compound | % Inhibition [%] | Z score
1 | Cc1noc(C)c1C[C@H](C)NS(=O)(=O)CCC(F)(F)Cl | -9 | 0.89
2 | Cc1cnc(C(C)N2CCN(C(C)c3ncc(C)o3)CC(O)C2)o1 (stereo not drawn) | -10 | 1.59
3 | CCN(Cc1cc(Cl)c(OC)cc1OC)[C@H]1COC[C@@H]1O | -2 | 0.27
4 | CCc1noc(-c2csc(C(=O)NC3CCCCCC3)n2)n1 | -10 | 1.57
5 | Cc1c(NC(=O)N2CC3(CCCC3)[C@H]2c2ccccc2)nnn1C | 6 | -0.73
6 | CCCc1nc(C)c(NC(=O)N2C[C@@H](NC(C)=O)[C@H](c3nccn3C)C2)s1 | 2 | -0.32
7 | CCn1cc(CC(=O)N2CCOc3ccc(O)cc3C2)nn1 | 1 | -0.12
8 | O=C(c1ccc(-c2cc(O)c(F)c(F)c2)cc1)N1C[C@@H]2[C@@H]3CC[C@@H](C3)[C@@H]2C1 | -4 | 0.5
9 | C[C@@H](c1ccc(Cl)cc1Cl)N(C)C(=O)c1cn2c(n1)CCCC2 | -14 | 1.81
10 | CCC(=O)Nc1c(C(=O)N2CCC(N3CCCCC3)CC2)oc2ccccc12 | 1 | -0.11
11 | O=C(Cc1cccs1)NC1CCCCCCC1 | -6 | 1.15
12 | CCc1nsc(N(C)Cc2nccn2CC(F)(F)F)n1 | -6 | 0.7
13 | Cc1cnn(CCNCc2nc(C)c(C)o2)c1 | -9 | 1.2
14 | COC(=O)[C@H]1C[C@@H](C(=O)NCc2ccncc2C)[C@@H](c2cccc(F)c2F)N1C | -11 | 1.39
15 | CCN(C(=O)c1ccc(-c2cccc3c(N)ccnc23)cc1)[C@H]1COC[C@@H]1O | -3 | 0.38
16 | CN1CCCC[C@@H]1CNS(=O)(=O)N1CCCC1 | 18 | -2.33
17 | O=C(CC1CCCCC1)N1CCN(C(=O)[C@@H]2CCCc3cccnc32)CC1 | 3 | -0.3
18 | COc1ccc(C(CN2CCN(C)CC2)NC2CC3CCC2C3)cc1 (stereo not drawn) | 2 | -0.3
19 | Cc1cccc(NC(=O)N2CCN(C(=O)c3nsc4ccccc34)CC2)c1 | -2 | 0.44
20 | C[C@H]1COCCN1c1ccc(NC(=O)c2ncoc2-c2ccccc2Cl)cc1 | -2 | 0.28
21 | O=C(NC1CC1)c1ccccc1C(=O)c1ccc(F)cc1 | -8 | 1.02

Row | Compound | % Inhibition [%] | Z score
22 | COc1ccc2c(c1)C(C(=O)N1CCCCC1C(=O)O)CCC2 (stereo not drawn) | -4 | 0.53
23 | O=C(Nc1nc2ccccc2s1)c1csc2c1CCCC2 | 30 | -3.37
24 | CCC(NC(=O)C1CCC(=O)N1C)C1CN(Cc2ccccc2)CCO1 (stereo not drawn) | -8 | 1.58
25 | Cc1ccc(F)c(S(=O)(=O)N2CCCC(N3C(C)CCC3C)C2)c1 (stereo not drawn) | -8 | 0.85
26 | CC1(C)[C@]2(C(=O)Nn3cnnc3)CC[C@@]1(C)OC2=O | 2 | -0.45
27 | CC(C)[C@]1(C)CC(=O)N(Cc2nnn(C)n2)C1=O | 5 | -0.49
28 | Cc1nn(C)c(Cl)c1-c1nnc2cccc(C)n12 | -11 | 1.34
29 | C[C@H]1CN(C(=O)c2cnccc2N)CCCO1 | 0 | 0.07
30 | Cc1nccn1Cc1nnc(C2CCN(c3ncnc4[nH]ccc34)CC2)n1C | -4 | 0.7
31 | CN(CC(=O)Nc1ccc2c(c1)OCO2)Cc1cccs1 | -6 | 0.92
32 | Cc1cc(C(F)F)nn1CC(=O)Nc1sc2c(c1C#N)CCC2 | -6 | 0.88
33 | COCC(=O)N(CCN1CCCC1)CC(=O)N(Cc1ccc(F)cc1)Cc1cccs1 | 10 | -0.98
34 | CC1(C)CC(Nc2cnn(-c3ccncc3)c2)CC(C)(C)O1 | -5 | 0.92
35 | CCCC(=O)Nc1ccc([C@H](C)O)cc1 | -16 | 1.5
36 | COc1ccc(C(C)N(C)C(=O)CC2(c3cccc(C(F)(F)F)c3)CC(=O)N(C3CC3)C2=O)cc1 (stereo not drawn) | -16 | 3.06
37 | N#Cc1cccc(-c2cn3c(n2)N(C(=O)C2CCC2)CCC3)c1 | -2 | 0.27
38 | Cc1cc(OCc2cc(C)on2)cc(C)n1 | 29 | -3.92
39 | Cc1ccc(-n2nc(C)c3c(=O)n(CC(=O)NCc4ccccc4C(F)(F)F)ccc32)cc1 | 0 | -0.01
40 | Cc1cc(C(=O)NCCCC2CCCC2)on1 | -14 | 2.15
41 | CN(C)C[C@@H]1CN(C(=O)c2ccccc2OCc2ccccc2)C[C@@H]1CO | -6 | 0.95
42 | CC1CCN(S(=O)(=O)N(C)c2ccn(C)n2)CC1 | -9 | 1.02

Row | Compound | % Inhibition [%] | Z score
43 | COc1ccc(C2C3COC(C)OCC3ON2C)cc1OC (stereo not drawn) | 7 | -0.87
44 | CC(C)(C)CC(=O)N1C[C@@H]2CN(CCO2)C(=O)[C@@H]2C[C@@H](CN2Cc2cccc(Cl)c2)NC(=O)C[C@@H]2O[C@H](C1)[C@@H](O)[C@H]2O | 10 | -1.32
45 | COc1ccc(CCC(=O)N[C@H]2CC(=O)N(c3ccc4c(c3)OCCO4)C2)cc1 | -15 | 2.72
46 | COc1ccc(-c2nnc(C(C)=O)n2Nc2ccc(F)cc2)cc1 | -15 | 1.76
47 | Oc1ccccc1-c1ccnc2c(-c3ccccc3)cnn12 | 9 | -1.42
48 | O=C(Cn1cnc2ccccc2c1=O)NC1CCCCCC1 | -1 | 0.11
49 | C[C@@H](c1ccccc1)N(Cc1nc(C(=O)NCc2ccccc2)co1)Cc1ccccc1C(F)(F)F | -2 | 0.47
50 | CN(C)Cc1ccc(-c2cccc3cnccc23)nc1 | -4 | 0.73
51 | OCC1CN(c2nc(-c3ccccc3)ns2)C1 | -15 | 1.4
52 | CN(C)c1nc2c(s1)CN(c1ncnc3c1ncn3C)CC2 | -11 | 1.71
53 | Cc1ccc(OCc2nnc(C3CC3)n2C)c(CO)n1 | -12 | 1.01
54 | CCOc1ccc(N2C(=O)NC3c4ccccc4OC2(C)C3C(=O)Nc2ccc(C)cc2C)cc1 (stereo not drawn) | -7 | 1.08
55 | Cc1cccc(C)c1OCc1noc(-c2ccccc2C(F)(F)F)n1 | -5 | 0.58
56 | CN1Cc2ccccc2C[C@H]1C(=O)NCCN1CCOC1=O | 11 | -1.38
57 | C#CCCC1(CCC(=O)N2CCC(=O)N(C)c3ccccc32)N=N1 | -3 | 0.62
58 | Cc1c[nH]nc1CN[C@@H]1c2ccccc2CC12CCOCC2 | -2 | 0.36
59 | CN1CCN(CCNCc2ccc(Br)cc2F)CC1 | -5 | 0.85
60 | Cc1noc(-c2cc(C)n(-c3ccccc3)n2)n1 | -10 | 1.03
61 | O=C1NCCC[C@@H]1NCc1ccc(F)c(-c2cccs2)c1 | -12 | 1.81
62 | COc1cc(CN(C)CCC(=O)N2CCc3ccccc3C2)sn1 | 8 | -1.44
63 | Cc1ccc(N=C(NOC(=O)c2ccccc2)c2nonc2N)c(C)c1 | -7 | 1.15

Row | Compound | % Inhibition [%] | Z score
64 | O=S(=O)(c1cc(-c2nnc(C3CC3)o2)cs1)N1CCOCC1 | -7 | 0.77
65 | CN(C)c1ccc(-c2nc(-c3ccc4[nH]c(=O)[nH]c4c3)cs2)cc1 | -5 | 0.7
66 | CCc1nc(-c2ccc(-c3noc(-c4ccc(C)s4)n3)cc2)cs1 | -15 | 1.56
67 | COCCCNC(=O)[C@@H](C)C1CCN(C(=O)c2ccc3nc(-c4ccccc4)oc3c2)CC1 | -11 | 1.25
68 | CC(C)C(=O)N1CCN(c2nc3c(s2)C[C@@H](C(=O)Nc2ccccc2)CC3)CC1 | 28 | -3.21
69 | COc1ccc([C@@H]2CCCN2C(=O)CCC2CCCCC2)cc1OC | -1 | 0.06
70 | CC(C)N1C(=O)C[C@H](Nc2ncc(Cl)cn2)C1=O | -3 | 0.56
71 | CCc1nn(C)cc1-c1cccc(C(=O)N(C)Cc2ccc(OC)c(O)c2)c1 | -12 | 2
72 | CCC(=O)Nc1cccc(-c2noc(C3CCN(C(=O)c4ccc5cc[nH]c5c4)CC3)n2)c1 | -11 | 1.37
73 | COC(=O)C1CC12CCN(CC(O)COc1ccccc1C#N)CC2 (stereo not drawn) | 1 | -0.21
74 | O=C(O)[C@@H](c1ccsc1)N1CCC(c2nc3ccccc3s2)CC1 | -15 | 1.74
75 | CCn1cc(S(=O)(=O)N2CCC3(CCC(=O)N(C4CC4)C3)CC2)cn1 | -12 | 1.7
76 | CNC(=O)c1ccccc1-c1csc2ccccc12 | -4 | 0.76
77 | COc1ccc(C2C3CCCCC3(O)CCN2CC(=O)NCc2ccco2)c(OC)c1 (stereo not drawn) | -11 | 0.94
78 | O=C(Cn1cnc2ccccc21)N[C@H]1CCN(Cc2ccsc2)C1 | -4 | 0.56
79 | CC1=CN2C(=O)[C@@](Cc3ccc(F)cc3)(NC(=O)c3ccccc3)N=C2C=C1 | -13 | 2.52
80 | COc1ccc(C)cc1NC(=O)Cn1cncc(C(=O)NC2CC2)c1=O | 1 | -0.16
81 | CN(Cc1ccncc1Cl)[C@H]1CCN(CC(F)(F)F)C1=O | -13 | 1.27
82 | COc1ccc(CNC(=O)CS(=O)(=O)C2CCCC2)cc1Br | -12 | 1.1
83 | C[C@H]1CN(c2cccc(Cl)c2)C(=O)CN1C(=O)CN1CCCC1=O | -9 | 1.54
84 | COC(=O)c1ccc(N2C[C@@H](C(=O)OCC(=O)Nc3cc(C)on3)CC2=O)cc1 | 14 | -2.19
